# In the supplement of paper PMC7238544:
# Counter-ions that a name gives are not always drawn. ± gives the standard deviation of the averaged measurements. The list shows a part of the results.
# Columns and labels:
# Details in all cases: priming compound concentration 100 µM
# [1] = tested on: hAMSC donor 1; experiment: Hoechst total cell count ratio vs vehicle control; higher = more cells (less toxicity)
# [2] = tested on: hAMSC donor 2; experiment: as above
# [3] = tested on: hAMSC donor 1; experiment: transgenic luciferase activity (RLU/mg protein) fold change vs vehicle control (ratio); higher = more transgene expression
# [4] = tested on: hAMSC donor 2; experiment: as above
# [5] = tested on: hAMSC donor 1; experiment: transfection efficiency (EGFP+ cells / Hoechst count) fold change vs vehicle control (ratio); hAMSC are human adipose-derived mesenchymal stem cells given an EGFP-luciferase plasmid by lipofection; higher = enhanced transfection
# [6] = tested on: hAMSC donor 2; experiment: as above
# 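Throughout, for Hoechst total cell count ratio vs vehicle control: compound added 30 min before Lipofectamine 3000 lipoplex delivery, triplicate-well means expressed against DMSO vehicle control wells of the same 96-well plate.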
# 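Throughout, for transfection efficiency (EGFP+ cells / Hoechst count) fold change vs vehicle control: compounds added 30 min before Lipofectamine 3000 lipoplex transfection, triplicate means relative to DMSO vehicle wells on the same plate, luciferase RLU normalized to BCA total protein.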
# 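Throughout, for transgenic luciferase activity (RLU/mg protein) fold change vs vehicle control: compounds in DMSO added 30 min before Lipofectamine 3000 transfection of pEGFP-Luc in 96-well plates, values are means of triplicate wells over DMSO vehicle wells on the same plate.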
SMILES,Hoechst total cell count ratio [1],Hoechst total cell count ratio [2],transgenic luciferase activity [3],transgenic luciferase activity [4],transfection efficiency [5],transfection efficiency [6]
C[C@]12C/C(=C/O)C(=O)C[C@@H]1CC[C@@H]1[C@@H]2CC[C@@]2(C)[C@H]1CC[C@]2(C)O [Oxymetholone],1.76 ± 0.063,0.386 ± 0.058,0.287 ± 0.14,0.717 ± 0.35,0.444 ± 0.038,1.12 ± 0.25
CC(=O)O[C@H]1C[C@@H]2CC[C@@H]3[C@H](CC[C@@]4(C)[C@H]3C[C@H]([N+]3(C)CCCCC3)[C@@H]4OC(C)=O)[C@@]2(C)C[C@@H]1[N+]1(C)CCCCC1 [Pancuronium dibromide],1.25 ± 0.098,1.09 ± 0.2,0.811 ± 0.12,0.876 ± 0.26,1.04 ± 0.31,1.16 ± 0.13
C=CCN1CC[C@]23c4c5ccc(O)c4O[C@H]2C(=O)CC[C@@]3(O)[C@H]1C5 [Naloxone hydrochloride],1.37 ± 0.17,1.33 ± 0.42,0.381 ± 0.076,0.849 ± 0.19,0.726 ± 0.064,0.95 ± 0.076
O=c1c2ccccc2[se]n1-c1ccccc1 [Ebselen],0.0567 ± 0.036,0.202 ± 0.072,0.701 ± 0.79,0.301 ± 0.26,2.92 ± 2.4,0.156 ± 0.059
COc1ccc2[nH]cc(CCN)c2c1 [5-Methoxytryptamine],1.31 ± 0.12,1.53 ± 0.19,0.572 ± 0.23,0.54 ± 0.052,0.581 ± 0.12,0.549 ± 0.12
CCCN1C[C@H](CSC)C[C@@H]2c3cccc4[nH]cc(c34)C[C@H]21 [Pergolide mesylate],1.32 ± 0.2,1.07 ± 0.076,0.687 ± 0.034,0.666 ± 0.046,1.61 ± 0.82,0.975 ± 0.17
C[C@]12Cc3c[nH]nc3C[C@@H]1CC[C@@H]1[C@@H]2CC[C@@]2(C)[C@H]1CC[C@]2(C)O [Stanozolol],1.14 ± 0.092,0.862 ± 0.12,0.776 ± 0.27,1.49 ± 0.071,2.19 ± 0.73,2.05 ± 0.34
CCOC(=O)c1cncn1[C@H](C)c1ccccc1 [Etomidate],1.6 ± 0.1,2.07 ± 0.21,0.874 ± 0.54,0.234 ± 0.033,0.756 ± 0.09,0.775 ± 0.16
OC1CCCCC1N1CCC(c2ccccc2)CC1 (racemic) [(+/-)-Vesamicol hydrochloride],1.39 ± 0.41,1.08 ± 0.083,0.893 ± 0.31,1.05 ± 0.39,0.999 ± 0.34,0.966 ± 0.094
CCCCC/C=C\C/C=C\C/C=C\C/C=C\CCCC(=O)Nc1ccc(O)cc1,0.226 ± 0.022,0.0363 ± 0.025,0.000408 ± 0.0002,0.000311 ± 0.00012,0.0854 ± 0.0081,0.0397 ± 0.069
CNCC(O)c1ccc(O)cc1 (stereo unspecified) [Synephrine],1.77 ± 0.24,1.07 ± 0.15,1.02 ± 0.091,0.676 ± 0.24,0.942 ± 0.13,0.58 ± 0.13
O=C1Nc2ccc(Cl)cc2C(c2ccccc2Cl)=NC1O (stereo unspecified) [Lorazepam],1.18 ± 0.073,2 ± 0.13,1.47 ± 0.38,1.79 ± 0.18,1.27 ± 0.28,0.715 ± 0.01
C=C1C[C@@H]2[C@H](CC[C@]3(C)C(=O)CC[C@@H]23)[C@@]2(C)C=CC(=O)C=C12 [Exemestane],1.38 ± 0.22,0.967 ± 0.19,0.691 ± 0.22,0.885 ± 0.12,0.731 ± 0.36,0.785 ± 0.07
O=C1CC[C@@]2(O)[C@H]3Cc4ccc(O)c5c4[C@@]2(CCN3CC2CC2)[C@H]1O5 [Naltrexone hydrochloride],1.27 ± 0.14,1.55 ± 0.18,0.591 ± 0.23,–,0.708 ± 0.19,0.749 ± 0.27
CC(O)(CS(=O)(=O)c1ccc(F)cc1)C(=O)Nc1ccc(C#N)c(C(F)(F)F)c1 (stereo unspecified) [Bicalutamide],1.23 ± 0.074,1.93 ± 0.43,0.627 ± 0.079,0.868 ± 0.12,0.593 ± 0.085,0.818 ± 0.029
Oc1cc(Cl)ccc1Oc1ccc(Cl)cc1Cl [Triclosan],1.32 ± 0.32,0.454 ± 0.1,0.297 ± 0.089,–,1.1 ± 0.18,1.07 ± 0.43
C[C@]12CC[C@H]3[C@@H](CCC4=CC(=O)CC[C@@H]43)[C@@H]1CC[C@@H]2O [19-Nortestosterone],0.987 ± 0.091,1.02 ± 0.13,0.681 ± 0.2,0.901 ± 0.079,0.892 ± 0.38,1.1 ± 0.19
CCCC(C)(COC(N)=O)COC(=O)NC(C)C (stereo unspecified) [Carisoprodol],1.45 ± 0.18,1.61 ± 0.2,0.716 ± 0.44,–,1.04 ± 0.19,1.03 ± 0.22
CN1C(=O)CN=C(c2ccccc2)c2cc(Cl)ccc21 [Diazepam],1.15 ± 0.047,1.02 ± 0.16,2.91 ± 1.4,1.81 ± 0.65,1.65 ± 0.36,1.85 ± 0.73
Oc1cc2c(cc1O)[C@H]1c3ccccc3CN[C@@H]1CC2 (racemic) [Dihydrexidine hydrochloride],2 ± 0.23,1.34 ± 0.084,0.347 ± 0.1,0.66 ± 0.16,0.661 ± 0.083,0.6 ± 0.079
C=C(C)[C@@H]1[C@H]2OC(=O)[C@@H]1[C@]1(O)C[C@H]3O[C@]34C(=O)O[C@H]2[C@]14C.CC(C)(O)[C@@H]1[C@H]2OC(=O)[C@@H]1[C@]1(O)C[C@H]3O[C@]34C(=O)O[C@H]2[C@]14C [Picrotin - Picrotoxinin],1.31 ± 0.13,1.04 ± 0.1,0.19 ± 0.026,1.57 ± 0.38,0.73 ± 0.097,1.26 ± 0.31

SMILES,Hoechst total cell count ratio [1],Hoechst total cell count ratio [2],transgenic luciferase activity [3],transgenic luciferase activity [4],transfection efficiency [5],transfection efficiency [6]
c1ccc2c3c([nH]c2c1)CNCC3 [Tryptoline],1.6 ± 0.11,1.09 ± 0.026,1.68 ± 0.3,1.1 ± 0.29,0.56 ± 0.084,0.786 ± 0.11
CN1CC[C@@H](c2ccc(F)cc2)[C@H](COc2ccc3c(c2)OCO3)C1 [N-Methylparoxetine],0.136 ± 0.075,0.0927 ± 0.041,0.0176 ± 0.011,–,0.0512 ± 0.089,0.224 ± 0.12
O=C(O)CCCc1ccc(N(CCCl)CCCl)cc1 [Chlorambucil],0.661 ± 0.093,0.506 ± 0.043,0.353 ± 0.097,0.313 ± 0.15,1.17 ± 0.4,1.4 ± 0.19
CC[C@]1(O)CC[C@H]2[C@@H]3CCC4=CCCC[C@@H]4[C@H]3CC[C@@]21C [Ethylestrenol],1.39 ± 0.2,1.08 ± 0.37,0.424 ± 0.24,0.892 ± 0.085,0.884 ± 0.44,1.02 ± 0.19
COC(=O)N1CCN(C(=O)Cc2ccc(Cl)c(Cl)c2)C(CN2CCCC2)C1 (stereo unspecified),1.47 ± 0.31,1.09 ± 0.12,0.556 ± 0.079,0.983 ± 0.035,0.999 ± 0.14,0.914 ± 0.09
CC[C@@H](C(N)=O)N1CCCC1=O [Levetiracetam],1.66 ± 0.13,1.61 ± 0.15,0.914 ± 0.61,1.34 ± 0.075,0.63 ± 0.079,0.922 ± 0.23
Cc1nnc2n1-c1ccc(Cl)cc1C(c1ccccc1)=NC2 [Alprazolam],1.12 ± 0.093,1.12 ± 0.054,1.23 ± 1.1,1.14 ± 0.31,1.66 ± 0.16,1.44 ± 0.09
C[N+]1(CCC(C(N)=O)(c2ccccc2)c2ccccc2)CCCCC1 [Fenpiverinium bromide],1.37 ± 0.092,1.07 ± 0.25,1.49 ± 0.95,1 ± 0.25,0.932 ± 0.15,1.12 ± 0.22
CC(C)CC(N(C)C)C1(c2ccc(Cl)cc2)CCC1 (stereo unspecified) [Sibutramine],1.23 ± 0.086,1.83 ± 0.17,0.852 ± 0.32,0.602 ± 0.13,0.603 ± 0.13,0.658 ± 0.097
O=P1(N(CCCl)CCCl)NCCCO1 (stereo unspecified) [Cyclophosphamide hydrate],1.35 ± 0.047,1.6 ± 0.019,0.295 ± 0.099,0.528 ± 0.093,0.648 ± 0.11,0.872 ± 0.016
COc1ccc(C(CN(C)C)C2(O)CCCCC2)cc1 (stereo unspecified) [Venlafaxine hydrochloride],1.76 ± 0.33,1.05 ± 0.098,0.907 ± 0.14,0.571 ± 0.16,1.22 ± 0.27,0.93 ± 0.13
CC(C)N(CCC(C(N)=O)(c1ccccc1)c1ccccn1)C(C)C (stereo unspecified) [Disopyramide phosphate],1.15 ± 0.23,1.3 ± 0.15,1.45 ± 1,1.49 ± 0.76,1.28 ± 0.18,1.38 ± 0.16
CN1C(=O)COc2c(C(=O)NC3CN4CCC3CC4)cc(Cl)cc21 (stereo unspecified) [Azasetron hydrochloride],1.5 ± 0.28,1.27 ± 0.12,1.58 ± 1.3,1.11 ± 0.47,1.28 ± 0.19,0.959 ± 0.29
C[N+]1(C)CCCC(OC(=O)C(O)(c2ccccc2)c2ccccc2)C1 (stereo unspecified) [Mepenzolate bromide],1.37 ± 0.15,1.17 ± 0.38,0.525 ± 0.46,–,1.13 ± 0.13,1.14 ± 0.22
CN1[C@@H]2CC[C@H]1C[C@@H](OC(=O)C(CO)c1ccccc1)C2 (stereo partly specified) [Atropine],1.44 ± 0.073,1.3 ± 0.28,0.514 ± 0.084,0.879 ± 0.32,0.823 ± 0.096,0.977 ± 0.28
O=C(O)C(Cl)Cl [Dichloroacetic acid],1.11 ± 0.11,1.08 ± 0.076,0.571 ± 0.21,0.858 ± 0.14,1.16 ± 0.37,1.01 ± 0.046
CCC1(c2ccc(N)cc2)CCC(=O)NC1=O (stereo unspecified) [Aminoglutethimide],1.09 ± 0.13,1.45 ± 0.23,0.378 ± 0.14,0.737 ± 0.17,0.829 ± 0.11,0.802 ± 0.16
Oc1ccc2c3c1O[C@H]1[C@@H](O)CC[C@@]4(O)[C@@H](C2)N(CC2CCC2)CC[C@]314 [Nalbuphine hydrochloride],1.48 ± 0.12,1.23 ± 0.051,1.74 ± 0.93,0.897 ± 0.042,1.12 ± 0.13,0.85 ± 0.11
COc1cccc(C2(O)CCCCC2CN(C)C)c1 (stereo unspecified) [Tramadol hydrochloride],1.22 ± 0.071,1.4 ± 0.36,0.472 ± 0.1,1.05 ± 0.34,0.839 ± 0.27,1.18 ± 0.11
N=C(NCc1ccc(Cl)cc1)SCCCc1c[nH]cn1 [Clobenpropit],0.984 ± 0.066,1.2 ± 0.34,0.918 ± 0.61,0.61 ± 0.17,1.06 ± 0.54,1.11 ± 0.28
